In the antibiotic and cytotoxicity screens of Wong et al. (2023) one finds cytotoxicity call and growth inhibition call data, which are given here for 36 compounds.

The structures appear in SMILES notation. The list shows a part of the results.

One assay has as its system HSkMC. Description: cytotoxicity call (relative viability < 0.9). To be noted: 10 µM.
The test system of the next assay is HepG2. Briefly: cytotoxicity call (relative viability < 0.9). To be noted: 10 µM.
The subject of a further assay is S. aureus RN4220. Briefly: growth inhibition call (relative growth <= 0.2). To be noted: 50 µM.

`CCC1(CC)C(=O)C=CNC1=O`: the cytotoxicity call in the assay with HSkMC and in the assay with HepG2 was “inactive” throughout. Moreover, in the assay with S. aureus RN4220, the growth inhibition call is “inactive”.
In the case of `COc1ccc(CN2CCNCC2)c(OC)c1OC.Cl.Cl`, the cytotoxicity call in the assay on HSkMC and with HepG2 was “inactive” each time. For the same compound, the growth inhibition call in the assay on S. aureus RN4220 was “inactive”.
As for `C[C@H](CO)N1C[C@H](C)[C@@H](CN(C)C(=O)Oc2ccc3ccccc3c2)OCc2cnnn2CCCC1=O`, the cytotoxicity call with HSkMC and with HepG2 was “inactive” in each case. The growth inhibition call in the assay with S. aureus RN4220 was “inactive”.
Consider `CCC(C(=O)[O-])C1CCC(C)C(C(C)C(O)C(C)C(=O)C(CC)C2OC3(C=CC(O)C4(CCC(C)(C5CCC(O)(CC)C(C)O5)O4)O3)C(C)CC2C)O1.[Na+]` (stereo not drawn), for which, in the assay with HSkMC, the cytotoxicity call is “inactive”. Further, the cytotoxicity call in the assay on HepG2 was “active”. Also, the growth inhibition call in the assay with S. aureus RN4220 was “active”.
Regarding `c1ccc2c(c1)Nc1ccccc1S2`, in the assay with HSkMC, the cytotoxicity call was “inactive”. Further, the cytotoxicity call in the assay with HepG2 was “active”. For the same compound, in the assay with S. aureus RN4220, the growth inhibition call is “inactive”.
`O=C1CNC[C@@H]2c3cccc(F)c3CCN12`: the cytotoxicity call in the assay with HSkMC and in the assay with HepG2 was “inactive” throughout. The growth inhibition call with S. aureus RN4220 is “inactive”.
Take `O=C(C1CCCC1)N1C[C@@H]2CCNC[C@@H]21`: the cytotoxicity call in the assay on HSkMC and in the assay on HepG2 was “inactive” throughout. In addition, the growth inhibition call in the assay on S. aureus RN4220 is “inactive”.
On to `CN(C)C(=O)CN1CCN(C)C(=O)[C@]12CCN(c1ncccn1)C2`, for which the cytotoxicity call in the assay with HSkMC and with HepG2 was “inactive” throughout. In addition, the growth inhibition call in the assay with S. aureus RN4220 was “inactive”.
`NCCc1ccc(O)cc1`: the cytotoxicity call with HSkMC and in the assay on HepG2 was “inactive” throughout. The growth inhibition call with S. aureus RN4220 is “inactive”.
In the case of `OCCN1CC2(CCN(c3nccs3)C2)C1`, the cytotoxicity call in the assay with HSkMC and with HepG2 was “inactive” in each case. Also, the growth inhibition call in the assay with S. aureus RN4220 is “inactive”.
For the compound `CC(=O)OC1CCC2(C)C(=CCC3C4CCC(=O)C4(C)CCC32)C1` (stereo not drawn), the cytotoxicity call in the assay on HSkMC and in the assay on HepG2 was “inactive” throughout. Further, the growth inhibition call in the assay on S. aureus RN4220 is “inactive”.
Turning to `C[C@H]1CN([C@@H](C)CO)C(=O)CCCn2nncc2CO[C@H]1CN(C)C(=O)Oc1cccc2ccccc12`, the cytotoxicity call in the assay on HSkMC and with HepG2 was “inactive” throughout. In addition, the growth inhibition call in the assay on S. aureus RN4220 was “inactive”.
As to `CN(CCC[C@@H](O)c1cccnc1)[NH2+][O-]`, the cytotoxicity call in the assay with HSkMC and with HepG2 was “inactive” each time. Besides, in the assay with S. aureus RN4220, the growth inhibition call was “inactive”.
In the case of `O=C1C=CC(=O)c2c(O)cccc21`, the cytotoxicity call in the assay with HSkMC was “inactive”. The cytotoxicity call in the assay on HepG2 is “active”. In addition, the growth inhibition call in the assay with S. aureus RN4220 is “inactive”.
As for `Cc1ccc(OC(=O)N(C)C[C@@H]2OCc3ccccc3-c3c(n(C)c4ccccc34)C(=O)N([C@@H](C)CO)C[C@H]2C)cc1`, the cytotoxicity call with HSkMC and with HepG2 was “inactive” in each case. Moreover, the growth inhibition call in the assay with S. aureus RN4220 is “inactive”.
As for `CCCCOC(=O)C1=CC(=O)CC(C)(C)O1`, the cytotoxicity call in the assay on HSkMC was “inactive”. For the same compound, in the assay on HepG2, the cytotoxicity call was “active”. In addition, in the assay on S. aureus RN4220, the growth inhibition call is “inactive”.
Regarding `Cc1cc(OC(=O)N(C)C)cc(=O)n1C`, the cytotoxicity call in the assay on HSkMC and with HepG2 was “inactive” each time. The growth inhibition call in the assay with S. aureus RN4220 is “inactive”.
Consider `C1CO[C@H]2[C@@H](C1)CNC[C@H]2N1CCOCC1`, for which the cytotoxicity call in the assay on HSkMC and in the assay with HepG2 was “inactive” throughout. Also, the growth inhibition call in the assay with S. aureus RN4220 is “inactive”.
As for `CC(C)C[C@@H](N)C1(c2ccc(Cl)cc2)CCC1`, the cytotoxicity call with HSkMC and with HepG2 was “inactive” throughout. Moreover, in the assay with S. aureus RN4220, the growth inhibition call is “inactive”.
In the case of `CC[C@@]1(O)C[C@H](O[C@H]2C[C@H](N(C)C)[C@H](O)[C@H](C)O2)c2c(cc3c(c2O)C(=O)c2c(O)ccc(O)c2C3=O)[C@H]1C(=O)OC`, in the assay on HSkMC, the cytotoxicity call was “inactive”. The cytotoxicity call in the assay on HepG2 is “active”. The growth inhibition call in the assay with S. aureus RN4220 is “inactive”.
As for `C[N+]12CCC(CC1)C(OC(=O)C(O)(c1ccccc1)c1ccccc1)C2.[Br-]` (stereo not drawn), the cytotoxicity call with HSkMC and in the assay on HepG2 was “inactive” each time. The growth inhibition call with S. aureus RN4220 is “inactive”.
As to `CC(C)[C@H](N)C(=O)N1CCC[C@H]1B(O)O`, the cytotoxicity call in the assay on HSkMC and in the assay with HepG2 was “inactive” each time. In the assay with S. aureus RN4220, the growth inhibition call was “inactive”.
In the case of `C=C(C)[C@H]1CN[C@H](C(=O)O)[C@@H]1CC(=O)O`, the cytotoxicity call in the assay with HSkMC and with HepG2 was “inactive” throughout. Further, the growth inhibition call in the assay on S. aureus RN4220 was “inactive”.
Regarding `N[C@@H](Cc1ccccc1)c1ccc2c(c1)OCCO2`, the cytotoxicity call in the assay on HSkMC and in the assay on HepG2 was “inactive” throughout. The growth inhibition call in the assay with S. aureus RN4220 is “inactive”.
For the compound `CC1OC(OC2C=C3CCC4C(CCC5(C)C(c6ccc(=O)oc6)CCC45O)C3(C)CC2)C(O)C(O)C1O` (stereo not drawn), the cytotoxicity call with HSkMC and with HepG2 was “active” in each case. In addition, in the assay on S. aureus RN4220, the growth inhibition call is “inactive”.
As to `N#CC(OC1OC(COC2OC(CO)C(O)C(O)C2O)C(O)C(O)C1O)c1ccccc1` (stereo not drawn), the cytotoxicity call in the assay with HSkMC and in the assay on HepG2 was “inactive” each time. For the same compound, the growth inhibition call in the assay on S. aureus RN4220 is “inactive”.
In the case of `CCC(=O)CCCCC[C@@H]1NC(=O)[C@H]2CCCCN2C(=O)[C@H]([C@H](C)CC)NC(=O)[C@H](Cc2cn(OC)c3ccccc23)NC1=O`, the cytotoxicity call in the assay with HSkMC and with HepG2 was “active” in each case. For the same compound, the growth inhibition call with S. aureus RN4220 was “inactive”.
As to `O=C(NC[C@H]1CCC2(CCNCC2)O1)C1CC1`, the cytotoxicity call with HSkMC and in the assay with HepG2 was “inactive” in each case. In addition, the growth inhibition call in the assay with S. aureus RN4220 was “inactive”.
Consider `COC(=O)[C@@H]1[C@@H](CO)[C@@H]2Cn3c(ccc(C4=CCCC4)c3=O)[C@H]1N2S(=O)(=O)c1cn(C)cn1`, for which the cytotoxicity call with HSkMC and in the assay with HepG2 was “inactive” in each case. The growth inhibition call with S. aureus RN4220 is “inactive”.
For `CC(=O)OCC1=C(C(=O)O)N2C(=O)[C@@H](N)[C@H]2SC1`, the cytotoxicity call with HSkMC and with HepG2 was “inactive” throughout. The growth inhibition call with S. aureus RN4220 is “inactive”.
On to `COC(=O)[C@H]1[C@H]2CO[C@@H]1CN2`, for which the cytotoxicity call with HSkMC and in the assay on HepG2 was “inactive” throughout. The growth inhibition call with S. aureus RN4220 is “inactive”.
On to `FC(F)(F)c1nnc(N2CCNCC2)s1`, for which the cytotoxicity call with HSkMC and in the assay on HepG2 was “inactive” in each case. In addition, the growth inhibition call in the assay with S. aureus RN4220 is “inactive”.
As to `CNCCc1cnc[nH]1`, the cytotoxicity call in the assay on HSkMC (human skeletal muscle cells) and in the assay with HepG2 was “inactive” throughout. The growth inhibition call in the assay on S. aureus RN4220 is “inactive”.
On to `O[C@H]1[C@H]2[C@H](O)CCCN2C[C@H]1O`, for which the cytotoxicity call in the assay with HSkMC and in the assay on HepG2 was “inactive” throughout. Also, the growth inhibition call with S. aureus RN4220 is “inactive”.
In the case of `CC(C)=CCC[C@]1(C)C=Cc2c(O)c3c(c(CC=C(C)C)c2O1)O[C@]12[C@H](C[C@@H]4C[C@H]1C(C)(C)O[C@]2(C/C=C(/C)C(=O)O)[C@@H]4O)C3=O`, the cytotoxicity call with HSkMC and with HepG2 was “inactive” throughout. Besides, the growth inhibition call in the assay on S. aureus RN4220 is “inactive”.
For the compound `Cc1cc(O)ccc1Cl`, the cytotoxicity call with HSkMC was “inactive”. For the same compound, the cytotoxicity call with HepG2 was “active”. The growth inhibition call in the assay on S. aureus RN4220 was “inactive”.
